# The other results are listed elsewhere or left out. Values come from read counts of a selection and are noisy. Scores sum up all selected molecules that hold the word; the word was not tested alone.
# Experiments:
# Test in all cases: 6-mer SELEX enrichment z-score vs GST control; IMP3 is the RNA-binding protein IGF2BP3; higher = more enriched by binding
# IMP3 KH1-4 = conditions: construct: KH1-4 (164-579); SELEX round: R4
# Description: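 SELEX-seq with GST-tagged IMP3 KH1-4 (Pro164-Lys579) and an N40 RNA pool, round 4. 6-mer z-score of sequence-tag enrichment normalised to the corresponding GST SELEX round; RNA k-mers written as DNA (T for U).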
# IMP3 RRM1-2 = conditions: construct: RRM1-2 (1-163); SELEX round: R2
# Description: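 SELEX-seq with GST-tagged IMP3 RRM1-2 (Met1-Asn163) and an N40 RNA pool, round 2. 6-mer enrichment z-score normalised to GST SELEX. RNA written as DNA (T = U).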
# IMP3 full-length = IMP3 full-length (UniProt O00425); conditions: construct: FL IMP3 (1-579); SELEX round: R4
# Description: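 SELEX-seq with GST-tagged full-length IMP3 and an N40 RNA pool, round 4. Each 6-mer is scored as an enrichment z-score of sequence tags containing it, normalised to the matching GST SELEX round. RNA written as DNA (T = U).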
# IMP3 KH1-2 = conditions: construct: KH1-2 (164-376); SELEX round: R4
# Description: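 SELEX-seq with GST-tagged IMP3 KH1-2 (Pro164-Phe376) and an N40 RNA pool, round 4 (stringent 300/600 mM KCl washes). 6-mer z-score of sequence-tag enrichment normalised to the corresponding GST SELEX round; RNA k-mers written as DNA (T for U).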
# IMP3 KH3-4 = conditions: construct: KH3-4 (377-579); SELEX round: R4
# Description: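 SELEX-seq with GST-tagged IMP3 KH3-4 (Pro377-Lys579) and an N40 RNA pool, round 4. 6-mer z-score of sequence-tag enrichment normalised to the corresponding GST SELEX round; RNA k-mers written as DNA (T for U).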
# UniProt O00425, sequence (O00425 whole entry): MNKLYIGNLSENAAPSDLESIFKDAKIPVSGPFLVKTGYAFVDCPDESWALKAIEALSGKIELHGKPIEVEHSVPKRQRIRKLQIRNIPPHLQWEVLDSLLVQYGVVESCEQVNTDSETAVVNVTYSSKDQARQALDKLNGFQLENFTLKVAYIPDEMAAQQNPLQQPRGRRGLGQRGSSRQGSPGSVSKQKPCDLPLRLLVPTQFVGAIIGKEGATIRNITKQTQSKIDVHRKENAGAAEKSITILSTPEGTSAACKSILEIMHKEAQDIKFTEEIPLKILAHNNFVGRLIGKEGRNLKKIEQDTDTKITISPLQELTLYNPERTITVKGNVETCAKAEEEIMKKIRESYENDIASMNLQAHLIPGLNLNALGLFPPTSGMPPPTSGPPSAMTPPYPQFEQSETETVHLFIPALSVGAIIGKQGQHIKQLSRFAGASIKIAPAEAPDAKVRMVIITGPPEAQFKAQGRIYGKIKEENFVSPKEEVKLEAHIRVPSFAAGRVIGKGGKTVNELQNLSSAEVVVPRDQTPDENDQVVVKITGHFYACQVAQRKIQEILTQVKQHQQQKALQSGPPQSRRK
# IMP3 RRM1-2, sequence (chain, as listed by the source): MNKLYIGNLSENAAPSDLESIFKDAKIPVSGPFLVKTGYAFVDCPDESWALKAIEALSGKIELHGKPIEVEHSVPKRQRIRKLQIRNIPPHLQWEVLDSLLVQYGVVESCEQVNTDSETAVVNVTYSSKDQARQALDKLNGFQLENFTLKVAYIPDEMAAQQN
# IMP3 KH1-4, sequence (chain, as listed by the source): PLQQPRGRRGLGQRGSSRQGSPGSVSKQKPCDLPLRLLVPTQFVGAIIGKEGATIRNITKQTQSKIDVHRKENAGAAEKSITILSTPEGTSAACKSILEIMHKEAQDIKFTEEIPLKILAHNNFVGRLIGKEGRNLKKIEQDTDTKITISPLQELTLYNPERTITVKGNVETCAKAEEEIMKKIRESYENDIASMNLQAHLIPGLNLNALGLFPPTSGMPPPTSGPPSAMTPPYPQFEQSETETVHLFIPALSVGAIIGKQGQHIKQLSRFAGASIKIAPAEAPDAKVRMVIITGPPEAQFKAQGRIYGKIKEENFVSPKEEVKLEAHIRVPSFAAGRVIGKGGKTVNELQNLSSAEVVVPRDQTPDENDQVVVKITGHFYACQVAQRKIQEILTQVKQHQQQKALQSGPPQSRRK
# IMP3 KH3-4, sequence (chain, as listed by the source): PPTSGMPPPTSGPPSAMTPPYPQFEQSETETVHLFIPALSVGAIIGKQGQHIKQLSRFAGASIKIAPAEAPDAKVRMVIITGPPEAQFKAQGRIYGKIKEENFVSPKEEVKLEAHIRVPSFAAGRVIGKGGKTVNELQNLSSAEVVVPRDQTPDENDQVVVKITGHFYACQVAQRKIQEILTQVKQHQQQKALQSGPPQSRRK
# IMP3 KH1-2, sequence (chain, as listed by the source): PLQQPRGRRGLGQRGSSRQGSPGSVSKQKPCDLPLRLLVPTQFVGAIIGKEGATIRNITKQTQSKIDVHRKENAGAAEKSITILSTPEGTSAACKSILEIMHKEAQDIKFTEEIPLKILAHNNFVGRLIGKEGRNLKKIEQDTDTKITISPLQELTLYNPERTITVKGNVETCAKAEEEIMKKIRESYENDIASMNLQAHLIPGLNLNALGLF
Sequence,6-mer SELEX enrichment z-score (IMP3 KH1-4),6-mer SELEX enrichment z-score (IMP3 RRM1-2),6-mer SELEX enrichment z-score (IMP3 full-length),6-mer SELEX enrichment z-score (IMP3 KH1-2),6-mer SELEX enrichment z-score (IMP3 KH3-4)
GTGCAA,0.176,-0.041,0.102,-0.041,0.13
GCGGGT,-0.31,0.17,0.328,-0.075,0.004
TTTTAG,0.487,0.281,0.157,0.439,0.871
CATCCC,-0.095,0.009,0.509,-0.183,-1.19
CCACCA,0.301,1.23,0.434,0.313,-0.854
AAATGG,0.278,-0.996,-0.674,-0.019,0.788
TCGCCT,-0.156,0.108,-0.051,-0.05,-0.196
TTCGCC,0.161,-0.006,-0.124,0.052,-0.32
ACCAAT,0.011,0.277,-0.323,-0.056,-0.413
TTCTAA,0.57,-0.061,-0.129,0.586,0.703
CAGGAC,0.614,0.296,0.631,0.446,0.05
AACCCA,-3.05,-1.3,-2.72,-2.95,-3.65
TGGGCT,-0.142,0.46,0.187,-0.012,0.142
CGTCAT,-0.062,0.508,0.719,-0.12,-0.081
ATTCGC,0.61,0.142,0.219,0.508,0.389
CCTTGA,-1.29,-0.567,-1.27,-1.29,-1.36
GGCGGT,0.24,0.365,0.649,0.35,0.458
CAACCA,0.109,2.94,0.785,0.375,-0.753
GGTGGA,0.43,-0.1,0.228,0.499,0.468
ACGATT,0.622,-0.615,-0.396,0.355,0.591
AGGAGT,0.625,-0.082,0.306,0.5,0.613
ATTCAT,2.02,1.95,2.22,2.09,1.8
AGACTA,0.114,-0.564,-0.517,0.141,0.422
CTCACG,-0.94,0.365,-0.17,-0.848,-1.07

Sequence,6-mer SELEX enrichment z-score (IMP3 KH1-4),6-mer SELEX enrichment z-score (IMP3 RRM1-2),6-mer SELEX enrichment z-score (IMP3 full-length),6-mer SELEX enrichment z-score (IMP3 KH1-2),6-mer SELEX enrichment z-score (IMP3 KH3-4)
TATATA,1.73,0.139,0.503,1.69,2.53
CGTTTA,-0.186,0.11,-0.196,-0.094,-0.004
TCAGGG,0.089,0.569,0.544,0.226,0.193
GCCTGT,-0.21,-0.01,-0.183,-0.172,-0.295
CATTGA,0.214,0.251,0.364,0.08,0.216
GGTCCA,0.329,0.035,0.504,0.163,0.057
GCGGCT,0.326,0.47,0.846,0.352,0.683
TATACG,1.07,-0.18,0.04,0.8,1.03
GTACTG,-0.4,-0.036,-0.296,-0.409,-0.438
AAACTG,-0.322,-1.43,-1.46,-0.275,-0.185
TTGCCA,0.016,-0.051,-0.199,-0.064,-0.199
TCTTTG,0.031,0.4,0.088,0.042,0.185
GGGCAC,0.787,0.396,1.67,0.866,0.819
CGAAGC,-1.71,-0.729,-0.792,-1.53,-1.61
CCTGTG,-0.485,-0.332,-0.534,-0.444,-0.637
TGGGAG,0.606,-0.056,0.404,0.684,0.742
GAGAAG,0.495,-0.984,-0.226,0.385,0.717
ATGTCC,0.554,-0.318,-0.071,0.11,-0.021
TTAAGC,-0.259,0.023,-0.483,-0.287,-0.037
GCGCTC,-0.442,0.369,0.546,-0.264,-0.373
TGCTCT,-0.029,0.323,0.061,0.08,0.073
AGAAAT,0.413,-1.22,-0.722,0.292,1.36
ACTTGT,-0.091,0.119,-0.199,-0.224,-0.111
GCGCGT,-1.09,0.203,-0.156,-0.913,-0.827

Sequence,6-mer SELEX enrichment z-score (IMP3 KH1-4),6-mer SELEX enrichment z-score (IMP3 RRM1-2),6-mer SELEX enrichment z-score (IMP3 full-length),6-mer SELEX enrichment z-score (IMP3 KH1-2),6-mer SELEX enrichment z-score (IMP3 KH3-4)
TGCTTG,-0.095,0.158,-0.111,-0.077,-0.028
ACGACC,-1.3,-1.19,-1.43,-1.14,-1.89
ATACAC,2.17,1.65,1.65,2.8,1.74
TTGAAG,-0.021,-0.466,-0.395,-0.133,0.231
TCACCT,-0.248,0.305,-0.272,-0.214,-0.564
CTAAGC,-0.867,-0.061,-0.756,-0.829,-0.865
CCTCTG,-0.284,-0.054,-0.347,-0.277,-0.606
TAAGGG,0.308,0.005,-0.036,0.339,0.662
AACGAT,-0.008,-1.4,-1.01,-0.246,0.379
TACTAT,1.2,0.184,0.11,1.12,1.38
TTGTAC,0.009,0.149,-0.181,-0.18,-0.113
ATCTTG,-0.562,0.338,-0.032,-0.487,-0.454
CGCACC,-0.085,-0.315,0.426,-0.092,-1.01
GGTCAA,0.022,0.024,0.303,-0.133,0.133
ACTACA,1.54,1.23,0.815,2.13,1.3
ACGACG,-1.69,-1.01,-0.976,-1.62,-1.77
TCTGCA,0.388,0.34,0.577,0.402,0.05
AATCCA,-0.466,0.018,-0.778,-0.363,-0.776
ATTGTT,0.602,0.348,0.156,0.354,0.674
CGATGC,-1.29,-0.497,-0.705,-1.24,-1.3
TCCTTT,1.18,0.215,0.177,1.06,0.839
AAAGGC,-0.276,-0.719,-0.043,-0.346,0.293
CCGATT,-0.264,-0.498,-0.51,-0.076,-0.34
TCCAAC,-0.806,0.081,-0.635,-0.707,-1.32

Sequence,6-mer SELEX enrichment z-score (IMP3 KH1-4),6-mer SELEX enrichment z-score (IMP3 RRM1-2),6-mer SELEX enrichment z-score (IMP3 full-length),6-mer SELEX enrichment z-score (IMP3 KH1-2),6-mer SELEX enrichment z-score (IMP3 KH3-4)
TTGGAA,-0.148,-0.274,-0.381,-0.278,-0.042
TTGCCT,-0.298,0.08,-0.351,-0.288,-0.279
ACAGGG,0.957,0.462,0.927,1.1,1.05
GTGAGG,0.865,-0.042,0.518,0.729,0.795
TCGCGA,-0.624,-0.136,-0.216,-0.54,-0.521
ATAGAA,1.51,-0.77,0.137,1.47,2.41
GACGGC,0.956,-0.227,1.2,–,0.515
CTGCGA,-0.872,-0.464,-0.429,-0.83,-0.849
GACTTC,-0.3,0.067,-0.504,-0.283,-0.422
TTCACC,0.252,0.426,0.097,0.372,-0.275
TGATTC,0.579,0.049,0.019,0.384,0.523
TCCATC,0.542,0.893,0.692,0.484,-0.094
ATGAGA,0.9,-0.8,-0.343,0.524,1.4
TCTATG,0.125,0.223,-0.01,0.12,0.265
TATAAA,1.32,-0.829,-0.277,1.25,2.55
CATGAG,-0.722,0.306,0.072,-0.841,-0.663
TATTAT,1.3,0.377,0.263,1.15,1.84
CGAGGG,-0.525,-0.23,-0.019,–,-0.333
TAGCAA,0.055,0.232,0.136,0.035,0.127
CGCGCA,0.12,0.23,0.965,0.052,-0.139
GATCTT,-0.006,0.263,0.018,-0.038,0.08
AATGAT,1.8,-0.924,-0.259,–,2.61
CCTAAA,-1.81,-1.58,-2.23,-1.73,-1.83
GGCGAG,-0.301,-0.124,0.57,-0.181,-0.05

Sequence,6-mer SELEX enrichment z-score (IMP3 KH1-4),6-mer SELEX enrichment z-score (IMP3 RRM1-2),6-mer SELEX enrichment z-score (IMP3 full-length),6-mer SELEX enrichment z-score (IMP3 KH1-2),6-mer SELEX enrichment z-score (IMP3 KH3-4)
CCGGTT,-0.186,0.054,-0.069,-0.185,-0.132
GGTGAA,0.109,-0.447,-0.102,0.077,0.376
ATTAGA,1.1,-0.263,0.065,0.805,1.7
AGAGCA,-1.1,0.468,0.327,-1.07,-0.84
TGGCAG,0.699,0.342,0.971,0.558,0.625
TGACCA,-0.301,-0.369,-0.824,-0.47,-0.677
CGTGAC,-0.638,-0.556,-0.357,–,-0.772
CTATAC,0.846,0.103,-0.084,–,0.608
AACGGT,-0.435,-0.568,-0.455,–,-0.439
TAAGGA,0.685,-0.433,-0.257,–,1.06
AGAACT,0.177,-0.805,-0.557,–,0.44
CTAGGC,0.137,0.51,0.467,–,0.128
TGGCGC,-0.157,0.375,0.476,–,-0.033
ACTTTC,0.899,0.347,0.248,–,0.565
TTCCTC,0.999,0.156,0.092,–,0.263
TAAGCT,-0.08,-0.082,-0.309,–,0.09
CTCACA,0.377,1.78,0.85,–,-0.305
ATATAT,2.19,0.373,0.722,–,3.08
TGAGTG,-0.988,-0.151,-0.885,–,-0.753
CATTAT,1.83,0.904,1.2,–,1.91
CCGTAC,-0.753,-0.407,-0.155,–,-1.04
CCCAGC,-1.76,-0.446,-0.834,–,-2.02
CGGGAG,0.096,-0.517,0.421,–,0.212
GGCGTG,-1.26,0.223,-0.291,–,-0.86

# From the supplement of paper PMC6531468
